The data set deals with ATP. In words: switch fluorescence ratio, 500 uM ATP over buffer (Cy3 cluster intensity, sum of 5 cycles each) (fold (ratio)); higher = stronger signal-on switching upon ATP binding; sequences stand for … in TCGTCGGCAGCGTCAGATGTGTATAAGAGACAGTTTTTTTTTTTTTTTTTTTTTTTTT…TC. Conditions: aptamer strand: ATP DNA aptamer (quencher-CACCTGGGGGAGTATTGCGGAGGAAGG + anchor), 100 nM annealed; ATP concentration: 500 uM; one replicate. In a few lines:
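Five buffer/ATP imaging cycles were run on Cy3-labelled switching-strand clusters on a modified Illumina MiSeq flow-cell, with NaOH stripping and re-annealing between cycles. In each cycle, clusters annealed to 100 nM quencher-labelled ATP aptamer were imaged in selection buffer, then after 15 min with 500 uM ATP at 22 °C. Per cluster, the fluorescence ratio is summed target-cycle over summed buffer-cycle Cy3 intensity, averaged per switch-domain sequence. Only clusters within 100-1000 RFU were kept.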

Sequences with one replicate were seen in a single cluster, so their values are uncertain.
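Further: ATP exposure 15 min at 22 °C before imaging.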

TGTGTATACG: the switch fluorescence ratio stood at 0.962.

With ACGTCCAGAG, the switch fluorescence ratio is 1.1.

Turning to TCAATATGGT, the switch fluorescence ratio was determined as 1.01.

As for AATCGTTGCG, the switch fluorescence ratio stood at 0.985.

As for GGACACGTT, the switch fluorescence ratio was determined as 0.983.

For the sequence TGAGCTTGCG, the switch fluorescence ratio is 1.04.

As to TACCCTAAAA, the switch fluorescence ratio stood at 1.03.

With ACTCTCTCTC, the switch fluorescence ratio was 1.02.

GGACTCCTGG: the switch fluorescence ratio was found to be 0.986.

Consider TCAACTAGTT, for which the switch fluorescence ratio worked out at 0.943.

For the sequence ATCAGGGACC, the switch fluorescence ratio is 1.04.

On to TCACCCATAA, for which the switch fluorescence ratio came out at 1.01.

Take TTTGCGCAAC: the switch fluorescence ratio was found to be 1.94.

For GCTCTGCAAG, the switch fluorescence ratio came to 2.1.

TACTGCGGTT: the switch fluorescence ratio is 1.01.

With ATAGTCAATG, the switch fluorescence ratio was found to be 0.995.

For the sequence GAGGCCTCTA, the switch fluorescence ratio came to 1.01.

For TGAATCATTA, the switch fluorescence ratio amounted to 1.02.

CGGTTCACCG: the switch fluorescence ratio was determined as 0.97.

Consider TGTAAAGACG, for which the switch fluorescence ratio is 0.908.

Take GTTCGTGGGA: the switch fluorescence ratio was determined as 1.01.

Take GGGAGTTTGC: the switch fluorescence ratio was 0.969.

Take GTTCGAAACG: the switch fluorescence ratio worked out at 1.07.

Take TCAGATTGCG: the switch fluorescence ratio was determined as 0.993.

Consider ACCATTGGTT, for which the switch fluorescence ratio is 0.977.

As to TATCAACCCC, the switch fluorescence ratio stood at 1.04.

Regarding TAGGAGTCG, the switch fluorescence ratio is 1.06.

For TCGGAAAAAG, the switch fluorescence ratio was determined as 0.982.

In the case of AAAGTCGGAC, the switch fluorescence ratio was found to be 1.

On to AGGTACTTGC, for which the switch fluorescence ratio turned out to be 1.02.

ATTTGGCAGC: the switch fluorescence ratio turned out to be 1.01.

Regarding GGAGCTCTGG, the switch fluorescence ratio was determined as 1.01.

For the sequence GGCAGAGGTT, the switch fluorescence ratio was 0.958.

For the sequence TATTGGAGAA, the switch fluorescence ratio came out at 1.01.

Consider TCCTTTGATT, for which the switch fluorescence ratio was 0.988.

Take ATCGTTAGCG: the switch fluorescence ratio came to 0.983.

With TTTCATACCC, the switch fluorescence ratio was determined as 0.996.

For TGTGTTCACG, the switch fluorescence ratio stood at 1.01.

With CTCATCAATG, the switch fluorescence ratio amounted to 1.02.

On to TCGGACGGCC, for which the switch fluorescence ratio amounted to 1.03.

Consider ACATTTTCAC, for which the switch fluorescence ratio turned out to be 1.02.

As to CAGTGTGGAC, the switch fluorescence ratio worked out at 1.02.

On to CCTTTTAAG, for which the switch fluorescence ratio is 0.952.

On to AGGTTGTAG, for which the switch fluorescence ratio was 1.01.

Take AAGTTATCAG: the switch fluorescence ratio is 1.01.

Turning to GCGTCAGTGG, the switch fluorescence ratio worked out at 1.01.

With AATGACGTTG, the switch fluorescence ratio worked out at 1.01.

On to GGGCAGCCCT, for which the switch fluorescence ratio stood at 0.999.

Regarding CTAGCAAGTA, the switch fluorescence ratio turned out to be 0.979.

Turning to CCTTGAGCAG, the switch fluorescence ratio worked out at 3.31.

TTTTATTCA: the switch fluorescence ratio worked out at 1.

As to TCGCGTTGGT, the switch fluorescence ratio was found to be 0.988.

For TGTGGAACAG, the switch fluorescence ratio came out at 1.

Take CCGCGTATCA: the switch fluorescence ratio was 1.03.

On to ACTCATTTTT, for which the switch fluorescence ratio worked out at 1.03.

As for CAGAAAGGTG, the switch fluorescence ratio was found to be 1.23.

Regarding ACGGGAGCAC, the switch fluorescence ratio was determined as 1.2.

TCACAATCAC: the switch fluorescence ratio came to 1.35.

TTGAACCCT: the switch fluorescence ratio stood at 1.05.

GAGTCGGGTT: the switch fluorescence ratio was found to be 0.968.

Consider TTCAGTCTGC, for which the switch fluorescence ratio was found to be 0.954.

Turning to TTCGTGTTGT, the switch fluorescence ratio was determined as 1.04.

Turning to CTCGGGCGCG, the switch fluorescence ratio worked out at 0.984.

With TGCAAGATTT, the switch fluorescence ratio worked out at 0.978.

Consider TATACGCAGG, for which the switch fluorescence ratio is 1.12.

Regarding CATCGCCCAG, the switch fluorescence ratio was found to be 1.19.

With GAGTACTAAT, the switch fluorescence ratio amounted to 0.998.

On to GAGTGCCGCG, for which the switch fluorescence ratio was determined as 1.02.

Turning to CAATGGCCAC, the switch fluorescence ratio turned out to be 0.995.

With CGAGGCGAAC, the switch fluorescence ratio is 2.72.

For GCCCGTTCAA, the switch fluorescence ratio was 1.05.

In the case of CGGTCATAGG, the switch fluorescence ratio stood at 0.989.

With GCCGTGAGGT, the switch fluorescence ratio stood at 1.01.

TTCTTTAAGT: the switch fluorescence ratio is 1.01.

On to GTTCTTTTAG, for which the switch fluorescence ratio amounted to 0.986.

For GGGAAACATT, the switch fluorescence ratio stood at 0.978.

CTGTTCACTG: the switch fluorescence ratio was 0.993.

Turning to GCAAGTGCCC, the switch fluorescence ratio is 1.07.

With AAAGTAAGGT, the switch fluorescence ratio was determined as 1.03.

The values above are taken from the supplement of paper PMC10126150.
